Measurements taken from a collection of fitness landscapes (doi:10.1126/science.1257360).
The list shows a part of the results.

B1: PhoQ; a variant is named by its letters at X, in order, P23837 (parent)
chain: MKKLLRLFFPLSLRVRFLLATAAVVLVLSLAYGMVALIGYSVSFDKTTFRLLRGESNLFYTLAKWENNKLHVELPENIDKQSPTMTLIYDENGQLLWAQRDVPWLMKMIQPDWLKSNGFHEIEADVNDTSLLLSGDHSIQQQLQEVREDDDDAEMTHSVAVNVYPATSRMPKLTIVVVDTIPVELKSSYMVWSWFIYVLSANLLLVIPLLWVAAWWSLRPIEALAKEVRELEEHNRELLNPATTRELTSLVRNLNRLLKSERERYDKYRTTLTDLTHSLKTPLXXLQXXLRSLRSEKMSVSDAEPVMLEQISRISQQIGYYLHRASMRGGTLLSRELHPVAPLLDNLTSALNKVYQRKGVNISLDISPEISFVGEQNDFVEVMGNVLDNACKYCLEFVEISARQTDEHLYIVVEDDGPGIPLSKREVIFDRGQRVDTLRPGQGVGLAVAREITEQYEGKIVAGESMLGGARMEVIFGRQHSAPKDE

Variants of: B1
Assay: enrichment ratio after two sorts for PhoP signalling (ratio (wild type AVST 3.29)); higher = more functional
Conditions: with PhoP (E. coli)

Variant | enrichment ratio
RKDK | ≤ 0.25
YCPK | ≤ 0.25
TQQT | 6.08
LIYA | ≤ 0.25
HSCV | 0.501
CLIS | ≤ 0.25
HSAK | ≤ 0.25
GSRP | ≤ 0.25
FFQG | ≤ 0.25
YAIP | ≤ 0.25
PAHI | ≤ 0.25
NTMH | ≤ 0.25
MVMR | ≤ 0.25
KSST | ≤ 0.25
LKWN | ≤ 0.25
REVG | ≤ 0.25
PVWQ | ≤ 0.25
VRIH | ≤ 0.25
MYEF | ≤ 0.25
KFDM | ≤ 0.25
WWVW | ≤ 0.25

Variant | enrichment ratio
SELY | 11.4
TNSN | 10.4
FDCS | ≤ 0.25
RFGF | ≤ 0.25
KMTG | ≤ 0.25
ANQG | ≤ 0.25
QSCM | 3.65
EDML | ≤ 0.25
RKFE | ≤ 0.25
IWMV | ≤ 0.25
RRGH | ≤ 0.25
DYHP | ≤ 0.25
YTKV | ≤ 0.25
DRKP | ≤ 0.25
QKRC | ≤ 0.25
QRAK | ≤ 0.25
PGIM | ≤ 0.25
RMGT | ≤ 0.25
SSRI | ≤ 0.25
MTAA | ≤ 0.25
TLEN | 3.73

Variant | enrichment ratio
DHNG | ≤ 0.25
FHGA | ≤ 0.25
VSGQ | ≤ 0.25
FGER | ≤ 0.25
GVAP | ≤ 0.25
FHYN | ≤ 0.25
ESWY | ≤ 0.25
PGLL | ≤ 0.25
ISWM | ≤ 0.25
GVRH | ≤ 0.25
DRQL | ≤ 0.25
HRLK | ≤ 0.25
GQDR | ≤ 0.25
VHKQ | ≤ 0.25
NEVS | 0.873
DHYR | ≤ 0.25
LWYS | ≤ 0.25
LWFP | ≤ 0.25
HRKC | ≤ 0.25
ELMG | ≤ 0.25
INTA | ≤ 0.25

Variant | enrichment ratio
VKLS | ≤ 0.25
PVAR | ≤ 0.25
IHKQ | ≤ 0.25
PKPT | ≤ 0.25
RKPT | ≤ 0.25
QYTG | ≤ 0.25
MTAT | 3.47
MIYM | 4.83
DGQY | ≤ 0.25
VCEV | ≤ 0.25
VHMI | ≤ 0.25
WPMW | ≤ 0.25
SLHT | ≤ 0.25
ITDK | ≤ 0.25
ILFI | ≤ 0.25
KEYS | ≤ 0.25
EPMR | ≤ 0.25
GEVW | ≤ 0.25
YNAM | ≤ 0.25
YWFW | ≤ 0.25
RQVK | ≤ 0.25
